According to the supplement of paper PMC4604168 (melanoma cell lines):
Some of the results follow. Single values are uncertain, as repeats are few or missing.

Legend:
Assay in all cases: cell count relative to DMSO control; melanoma cells; higher = more viable cells
Details in all cases: library dose: standard library concentration; 72 h
[1] = tested on: SkMel28
[2] = tested on: SkMel2
[3] = tested on: SkMel30
[4] = tested on: SkMel5
[5] = tested on: UACC257
[6] = tested on: UACC62
[7] = tested on: WM115
[8] = tested on: WM1716
[9] = tested on: WM1745
[10] = tested on: WM3526
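Note: cells treated in 1,536-well plates, then fixed and DAPI-stained, with nuclei counted from automated high-throughput microscope images.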

SMILES | cell count [1] | cell count [2] | cell count [3] | cell count [4] | cell count [5] | cell count [6] | cell count [7] | cell count [8] | cell count [9] | cell count [10]
COCC[n+]1c2c(n(Cc3cnccn3)c1C)C(=O)c1ccccc1C2=O + Oc1nc(-c2ccc(C(F)(F)F)cc2)nc2c1CSCC2 [XAV939] (first compound 0.002 µM, partner dose 10 µM) | 28.3% | 39.4% | 70.2% | 37.3% | 20.1% | 77.9% | 64.5% | 72.7% | 70% | 37%
Cn1c(Nc2ccc(C(F)(F)F)cc2)nc2cc(Oc3ccnc(-c4ncc(C(F)(F)F)[nH]4)c3)ccc21 + O=C1NC(=O)/C(=C/c2ccc(-c3ccc(F)cc3O)o2)S1 [AS252424] (first compound 0.4 µM, partner dose 5 µM) | 41.6% | 44.2% | 62.7% | 39.8% | 65% | 66.4% | 28.4% | 53.7% | 42.9% | 25.8%
Clc1ccc(Nc2nnc(Cc3ccncc3)c3ccccc23)cc1 [vatalanib] + Cn1c(Nc2ccc(C(F)(F)F)cc2)nc2cc(Oc3ccnc(-c4ncc(C(F)(F)F)[nH]4)c3)ccc21 [CHIR265] (first compound 10 µM, partner dose 0.4 µM) | 24.6% | 44.3% | 56% | 22.6% | 51.2% | 50% | 29.8% | 71.2% | 33.6% | 35.4%
Cn1c(Nc2ccc(C(F)(F)F)cc2)nc2cc(Oc3ccnc(-c4ncc(C(F)(F)F)[nH]4)c3)ccc21 + C[C@]1(c2nc3c(C(N)=O)cccc3[nH]2)CCCN1 [Veliparib] (first compound 0.4 µM, partner dose 7 µM) | 25% | 48.4% | 65.5% | 32.7% | 72% | 46.4% | 37.7% | 65.5% | 39.6% | 44.3%
Nc1cccc2c1CN(C1CCC(=O)NC1=O)C2=O (stereo not given) [lenalidomide] + COc1ccc2c(c1)CCC1C2CCC2(C)C(NCCCCCCN3C(=O)C=CC3=O)CCC12 [U73122] (first compound 5 µM, partner dose 2 µM) | 107% | 81.9% | 106% | 66.7% | 88.9% | 68.8% | 79% | 82.1% | 80.9% | 95.9%
C#Cc1cccc(Nc2ncnc3cc(OCCOC)c(OCCOC)cc23)c1 [erlotinib] + Cn1nnc2c(C(N)=O)ncn2c1=O [temozolomide] (first compound 4 µM, partner dose 10 µM) | 37.6% | 69.3% | 50.9% | 64.1% | 98.5% | 37.9% | 63.6% | 60.5% | 64.3% | 62.1%
OCc1c[nH]c2ccccc12 [Indole-3-carbinol] + Cc1nc(Nc2ncc(C(=O)Nc3c(C)cccc3Cl)s2)cc(N2CCN(CCO)CC2)n1 [dasatanib] (first compound 4 µM, partner dose 0.02 µM) | 91.1% | 74.3% | 96.4% | 61.1% | 75.5% | 74.3% | 73.2% | 71% | 30.7% | 94.1%
Cn1c(Nc2ccc(C(F)(F)F)cc2)nc2cc(Oc3ccnc(-c4ncc(C(F)(F)F)[nH]4)c3)ccc21 + CO[C@@H]1[C@H](N(C)C(=O)c2ccccc2)C[C@H]2O[C@]1(C)n1c3ccccc3c3c4c(c5c6ccccc6n2c5c31)C(=O)NC4 [Midostaurin] (first compound 0.4 µM, partner dose 0.4 µM) | 38.5% | 37.7% | 75.8% | 34.9% | 54.2% | 42.5% | 26.8% | 27.1% | 33.1% | 45.8%
Cn1c(Nc2ccc(C(F)(F)F)cc2)nc2cc(Oc3ccnc(-c4ncc(C(F)(F)F)[nH]4)c3)ccc21 + Cn1nnc2c(C(N)=O)ncn2c1=O [temozolomide] (first compound 0.4 µM, partner dose 10 µM) | 18.1% | 48.4% | 51% | 34.4% | 75.8% | 40.3% | 49% | 51.4% | 68.6% | 41.5%
O=C(CCCCCCC(=O)Nc1ccccc1)NO [vorinostat] + O=C1NC(=O)/C(=C/c2ccc(-c3ccc(F)cc3O)o2)S1 [AS252424] (first compound 0.4 µM, partner dose 5 µM) | 40.2% | 63.7% | 89.9% | 70% | 66.4% | 80.7% | 100% | 88% | 82.1% | 77.8%
O=C(CCCCCCC(=O)Nc1ccccc1)NO [vorinostat] + Cn1cncc1[C@@](N)(c1ccc(Cl)cc1)c1ccc2c(c1)c(-c1cccc(Cl)c1)cc(=O)n2C [tipifarnib] (first compound 0.4 µM, partner dose 0.05 µM) | 39.2% | 62.7% | 79.4% | 67% | 59.9% | 68.6% | 57.5% | 61.3% | 76.9% | 75.6%
